# In PubChem BioAssay AID485344 (National Center for Advancing Translational Sciences (NCATS), 2010):
# Out of some 340,000 compounds screened, about 6,900 (2%) were called active. Rule as the data show it: active = inhibition above about 30%; inactive = below that, where a call was filed. This is a selection; strong and weak results do not stand in their true shares. Entries without a call were filed so in the source.
# Target: D(2) dopamine receptor (Homo sapiens) (UniProt P14416)
# Experiment: HTS Assay for Allosteric Antagonists of the Human D2 Dopamine Receptor: Primary Screen for Antagonists; also: 0% is about no effect
# Conditions: HEK293 TREx D2 cells, calcium flux, dopamine EC80; at 10 µM; stronger effect = higher value
# In short: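 Read-out: kinetic calcium fluorescence (1 cycle/s) in inducible HEK293 T-REx D2 cells after an EC80 dopamine addition that followed 180 s compound preincubation. Loss of the dopamine response indicates antagonism.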
# Sequence of UniProt P14416 (P14416 whole entry, looked up): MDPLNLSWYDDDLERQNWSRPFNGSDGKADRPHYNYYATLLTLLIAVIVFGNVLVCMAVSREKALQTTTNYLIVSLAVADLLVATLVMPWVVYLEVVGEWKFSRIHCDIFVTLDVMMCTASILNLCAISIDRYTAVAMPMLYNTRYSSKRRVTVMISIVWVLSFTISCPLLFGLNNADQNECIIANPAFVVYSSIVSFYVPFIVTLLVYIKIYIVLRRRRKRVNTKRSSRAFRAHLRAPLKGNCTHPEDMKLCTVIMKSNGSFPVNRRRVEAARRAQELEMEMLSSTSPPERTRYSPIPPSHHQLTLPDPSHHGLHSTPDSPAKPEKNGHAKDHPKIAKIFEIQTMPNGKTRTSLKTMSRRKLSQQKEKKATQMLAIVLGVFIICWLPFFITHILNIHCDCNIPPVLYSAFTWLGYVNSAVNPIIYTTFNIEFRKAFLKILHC
row,Compound,inhibition
1,Cc1ccccc1OCC(=O)Nc1ccc2nc(SCc3ccccc3)sc2c1,18%
2,CCn1c(C(=O)NCc2cc(Br)ccc2OC)cc2oc3ccccc3c21,7.67%
3,CCN(C(=O)Cn1cnc2onc(-c3ccc(F)cc3)c2c1=O)c1cc(C)ccc1C,16.4%
4,Cc1ccc(NC(=O)N2CCN(c3cc(-c4noc(C)n4)ccc3C)CC2)c(C)c1,-5.32%
5,Cc1cccc(CCNC(=O)CN(c2ccc(C(C)C)cc2)S(=O)(=O)c2c(C)nn(C)c2C)c1,-26.8%
6,CCOC(=O)c1sc2nc(CSc3ccccc3)nc(N3CCCN(C)CC3)c2c1C,active: 53.2%
7,Cc1ccccc1-c1nnc(SCC(=O)N(C)C2CCCCC2)o1,-2.82%
8,O=C(NCCN1CCN(c2ccccc2)CC1)Nc1cccc(Cl)c1,active: 72.5%
9,O=C(NCc1ccc(F)cc1)c1ccc2c(c1)nnn2C1CCCC1,13.3%
10,COc1ccc(N2C(=O)CS(=O)(=O)C23C(=O)N(Cc2ccc(C)cc2)c2ccccc23)cc1Cl (configuration not stated),0.636%
11,CCOc1ccc(NC(=O)N2CCN(Cc3cc(=O)n4nc(-c5ccc(OC)cc5)sc4n3)CC2)cc1,-7.45%
12,Cc1c(NC(=O)c2cc(-c3ccc(Cl)cc3)on2)c(=O)n(-c2ccccc2)n1C,-10.1%
13,CCOC(=O)c1[nH]c(C)c(CCC(=O)NCc2ccc(OC)cc2)c1C,1.51%
14,CC(=O)c1ccc(NC(=O)C2CCC(CNS(=O)(=O)c3cccs3)CC2)cc1 (configuration not stated),11.4%
15,Cc1cccc(NC(=O)Cn2c(=O)ccc3cc(S(=O)(=O)N4CCCC4)ccc32)c1C,12.5%
16,CCOC(=O)c1noc2nc(C)n(Cc3cccc(C#N)c3)c(=O)c12,-1.11%
17,COc1ccc(CCNC(=O)c2ccc3c(c2)nc2n3CCC(C)C2)cc1OC (configuration not stated),1.5%
18,C/C(=N\Nc1ccc(Cl)c(C(=O)O)c1)c1ccc(Br)s1,active: 47.1%
19,CC(=O)c1ccc(NS(=O)(=O)c2ccc(-c3cc(C)no3)s2)cc1,-8.13%
20,Cc1ccc(NC(=O)c2ccc(CN3C(=O)CCn4nc(C)cc43)cc2)c(Cl)c1,-5.59%
21,CCCn1c(=O)c2sccc2n2c(CCCC(=O)Nc3ccc(Oc4ccc(Cl)cc4)cc3)nnc12,9.98%
22,CCOc1ccc(CCNC(=O)C2CCN(C(=O)c3cc4sccc4n3CC)CC2)cc1OCC,-2.13%
23,O=C(NNc1nc2c(F)cc(F)cc2s1)C1=COCCO1,active: 39.2%
24,CCCCOc1ccc(S(=O)(=O)Nc2ccc(-c3ccc(N4CCC(C)CC4)nn3)cc2)cc1,6.33%
25,COc1cccc(-c2nnc(SCC(=O)NC3CCCCC3)o2)c1,-4.6%

row,Compound,inhibition
1,COc1ccc(S(=O)(=O)Nc2ccc(-c3cn4ccsc4n3)cc2)cc1C,-15.7%
2,CCOC(=O)N1CCN(CCC(=O)Nc2ccccc2OC)CC1,active: 50%
3,COc1cccc(N2CCN(C(=O)c3cccn3-c3nnc(N4CCCC4)s3)CC2)c1,6.53%
4,COCCCNC(=O)c1ccc(-n2c(-c3ccccc3)cc3c2CCC(C)C3)cc1 (configuration not stated),-25%
5,Cc1c(NC(=O)c2cc(=O)c3ccccc3o2)c(=O)n(-c2ccccc2)n1C,11.7%
6,Cc1coc2c(C)c3oc(=O)c(CC(=O)NCCc4ccc(Cl)cc4)c(C)c3cc12,-14.4%
7,C=CCc1c(C)nc2nc(SCC(=O)Nc3ccc(C)c(C)c3)nn2c1C,23.2%
8,Cc1cccc(CSc2nc(-c3cccs3)ccc2C#N)c1,-11%
9,COc1ccc(NC(=O)C2CCCN(S(=O)(=O)c3ccc4c(c3)oc(=O)n4C)C2)c(OC)c1 (configuration not stated),-23.5%
10,CCOC(=O)N1CCc2c(sc3c2c(=O)n(Cc2ccccc2)c(=O)n3Cc2ccccc2Cl)C1,-13.7%
11,Cc1ccc2ncc(C(=O)N3CCN(c4ccccc4F)CC3)c(=O)n2c1,12.9%
12,CCCCNC(=O)c1cc2c(C)cc(C)cc2[nH]1,active: 34.1%
13,Cc1c(NC(=O)c2cc(-c3cccc(O)c3)on2)c(=O)n(-c2ccccc2)n1C,-24.5%
14,O=C(CN1CCN(c2ccc(F)cc2)CC1)N1N=CCC1c1ccccc1 (configuration not stated),active: 36.3%
15,COc1cccc(NC(=O)C2CCN(c3nnc(C)c4c(C)n(-c5ccccc5)nc34)CC2)c1,16.9%
16,CCc1ccc(OCC(=O)N(Cc2ccc(C)o2)C2CCS(=O)(=O)C2)cc1 (configuration not stated),2.89%
17,Cc1ccc(S(=O)(=O)N(CC(=O)NCCc2ccc(Cl)cc2)c2ccccc2C)cc1,-3.33%
18,COc1ccc(CCNC(=O)c2cnn(-c3ccc(F)cc3)c2C2CCN(C(=O)OC(C)(C)C)CC2)c(OC)c1,15.1%
19,CCc1ccccc1NC(=O)N1CCc2c([nH]c3ccccc23)C1c1ccc(C)cc1 (configuration not stated),5.5%
20,COc1ccccc1N1CCN(c2ncc3c(n2)CCN(Cc2ccccc2F)C3)CC1,14.4%
21,Cc1ccc(CSc2oc(-c3cccs3)nc2S(=O)(=O)c2ccccc2)cc1,2%
22,CC(=O)c1ccc(N2CCN(c3ncnc4c3nc3n4CCCC3)CC2)cc1,5.88%
23,COc1ccc(CCNC(=O)Cc2c(C)c3c(cc(C)c4c(C)c(C)oc43)oc2=O)cc1,11.7%
24,COCCCNC(=O)c1cn(CCOC)c(=O)c2c1c1ccccc1n2C,-1.69%
25,Cc1ccc(NC(=O)CSc2nnc3[nH]c(=O)cc(-c4ccccc4)n23)cc1Cl,1.6%

row,Compound,inhibition
1,COc1ccc(-c2noc(CCC(=O)Nc3ccc(C(F)(F)F)cc3)n2)cc1,12.8%
2,Cc1ccccc1CNC(=O)CN1C(=O)CSc2ccc(S(=O)(=O)N(C)C)cc21,0.264%
3,CC1CCN(CCOCCSc2ccc(Cl)cc2)CC1,active: 44.9%
4,COc1ccc(NC(=O)c2c(NC(=O)COc3ccccc3)sc3c2CCC(C)C3)cc1 (configuration not stated),2.75%
5,CCCCOc1ccc(S(=O)(=O)NNC(=O)c2cc3ccccc3o2)cc1,active: 44.2%
6,O=C(Nc1ccccc1C(F)(F)F)c1ccc2oc(=O)c(S(=O)(=O)c3ccc(F)cc3)cc2c1,0.766%
7,Cc1ccccc1Cn1c2ccccc2c2cnn(CC(=O)NC3CCC(C)CC3)c(=O)c21 (configuration not stated),-4.11%
8,COc1cc2c(=O)n(CCC(=O)NCC3CCCO3)c(=O)n(CC(=O)Nc3ccc(C)cc3C)c2cc1OC (configuration not stated),0.281%
9,COc1cc(NC(=O)C(CC(C)C)NS(=O)(=O)c2ccc3c(c2)CCN3C(C)=O)cc(OC)c1 (configuration not stated),-1.16%
10,CCc1ccc(CNCc2c(C(=O)O)n(Cc3ccc(C)cc3)c3cc(C)ccc23)cc1,4.35%
11,Cc1ccc(NC(=O)CC(C)S(=O)(=O)c2ccc3c(c2)NC(=O)CO3)c(Cl)c1 (configuration not stated),15.5%
12,CC(C)c1ccc2oc(-c3ccc(NC(=O)c4cccc(Br)c4)cc3)nc2c1,-7.14%
13,Cc1ccc2nc(-c3ccc(NC(=O)c4ccc(S(C)(=O)=O)cc4)cc3)sc2c1,-5.06%
14,CCOC(=O)c1ccccc1NC(=O)COc1ccccc1-c1nnc(-c2ccccc2)o1,10.8%
15,COc1ccc(CNC(=O)c2ccc(NC(=O)N3CCSc4ccccc43)cc2)cc1,-2.92%
16,CSc1nn(Cc2cccc(C)c2)c(N)c1S(=O)(=O)c1ccccc1,-7.58%
17,COc1ccccc1/C=C1\SC(=S)N(CCC(=O)Nc2nnc(C)s2)C1=O,active: 30.8%
18,Cc1c(C(=O)Nc2cccc(-c3nc4ccccc4s3)c2)oc2ccccc12,-5.91%
19,CCOc1ccc2nc(N3CCCC(C(=O)Nc4cc(Cl)c(OC)cc4OC)C3)sc2c1 (configuration not stated),-7.41%
20,CCCCCCSc1nnc2c(n1)OC(C)Nc1ccc(Br)cc1-2 (configuration not stated),11.7%
21,O=c1ccc(-c2ccccc2)nn1Cc1ccc(F)cc1Cl,20.5%
22,C=CCC1Cc2c(cccc2[N+](=O)[O-])C(CC=C)N1 (configuration not stated),active: 36.1%
23,Cc1ccc(Cn2ccnc2SCC(=O)Nc2nc3ccccc3s2)cc1,-18%
24,NS(=O)(=O)c1ccc(NC(=O)C(=O)Nc2ccc3nc4n(c(=O)c3c2)CCCCC4)cc1,0.771%
25,Cc1cc(NC(=O)C2CCN(S(=O)(=O)c3cccc4nsnc34)CC2)ccc1Br,25.1%

row,Compound,inhibition
1,Cc1cccc(C(=O)N2c3nc(-c4ccco4)nn3C3(CCCCC3)[C@@H]3CCCC[C@@H]32)c1,21.8%
2,Cc1cccc(-n2ncc3c(N4CCCC(C)C4)ncnc32)c1 (configuration not stated),8.19%
3,C#CCOc1ccc(C2CC(=O)Nc3c2c(C)nn3-c2nc(C)cc(C)n2)cc1 (configuration not stated),-3.08%
4,COc1cc2c(cc1OC)CN(Cc1ccc(C)cc1)CC2,active: 56.2%
5,CCc1ccc(C(=O)c2cn(CC(=O)Nc3ccc(OC)cc3)c3cc4c(cc3c2=O)OCO4)cc1,-14%
6,NC(=O)C1(N2CCCCC2)CCN(C(=O)Nc2ccc(F)cc2F)CC1,-0.144%
7,CCC1CN(S(=O)(=O)c2cc(-c3onc(C)c3C)ccc2C)c2cc(Cl)ccc2O1 (configuration not stated),6.16%
8,O=C(Nc1cccc(CNCCc2c[nH]c3ccccc23)c1)c1ccccc1Cl,active: 72.4%
9,Clc1ccc(CN2C3=NCCCN3c3ccccc32)cc1Cl,active: 75.5%
10,CCOc1ccc(N=C2C(=O)Nc3ccc(C)c(Br)c32)cc1,active: 42.4%
11,CCOC(=O)N1CCC2(CC1)OC(=O)C(C)=C2C(=O)NCc1cccc(F)c1,6.7%
12,Cc1cccc(NC(=O)CN2C(=O)c3cccc4cccc2c34)c1C,2.12%
13,O=C(Nc1cccc(Cl)c1)NC1CC2CCC(C1)N2Cc1cccs1 (configuration not stated),active: 73.4%
14,CCCN1CCN(c2ncnc3sc(C(=O)Nc4c(C)cc(C)cc4C)c(C)c23)CC1,22.1%
15,COc1cccc(NC(=O)CSc2nc(=O)n(Cc3ccncc3)c3c2CCC3)c1,19.1%
16,Cc1cc(C)c(Cn2c(C3CC(=O)N(c4ccc(F)cc4)C3)nc3ccccc32)c(C)c1 (configuration not stated),-1.24%
17,CC(C)CCN(C(=O)Nc1ccccc1)C(C)c1cccs1 (configuration not stated),14.1%
18,CC(C)OC(=O)c1c(-c2ccccc2)c(-c2ccccc2)nn(C)c1=O,20.3%
19,CCOC(=O)c1ccc(NC(=O)CCn2ccc(C)n2)cc1,-0.654%
20,CCn1c2ccccc2c2cc(/C=N/NC(=O)c3ccccc3C)ccc21,active: 36.2%
21,Cc1ccc(S(=O)(=O)C(CNC(=O)C(=O)NCc2ccccc2C)c2cccs2)cc1 (configuration not stated),18.5%
22,COc1ccc(CCNC(=O)C2CCN(S(=O)(=O)c3c(C)noc3/C=C/c3ccc(C)cc3)CC2)cc1OC,22.4%
